Entries after “also recorded” stand apart in the source; their conditions may differ. Part of at least one peptide drawing is inferred or uncertain, most often the ends. Where no end group is shown, it is not given here.
Key:
[1] = system: THP-1 cells; assay: GFP-NLS transduction efficiency, flow cytometry (Pos cells %, relative fluorescence intensity FL1-A); format: cell-based, human; details: GFP-NLS 5 μM, shuttle 1 μM, 5 minutes
[2] = system: HeLa cells; assay: GFP-NLS transduction and nuclear delivery, fluorescence microscopy; format: cell-based, Human; details: GFP-NLS 5 μM with 5 μM shuttle
[3] = system: HEK293A cells; assay: Calcein endosomal escape assay, quantification by flow cytometry; format: cell-based, Human
[4] = system: HeLa cells; assay: TAT-GFP transduction, fluorescence microscopy; format: cell-based, Human; details: TAT-GFP 5 μM with 3 μM shuttle, 1 hour, FIG. 10
[5] = system: HeLa cells; assay: GFP-NLS transduction efficiency, flow cytometry (Pos cells %, relative fluorescence intensity FL1-A); format: cell-based, Human; details: for Mean (%) (n = 3), FIG. 16: shuttle 3.5 μM
[6] = system: HeLa cells; assay: TAT-GFP transduction efficiency, flow cytometry; format: cell-based, Human; details: TAT-GFP 5 μM, 1 hour
[7] = system: HeLa cells; assay: FITC-labeled anti-tubulin antibody transduction, fluorescence microscopy; format: cell-based, Human; details: FITC-labeled anti-tubulin antibody 0.5 μM with 5 μM shuttle, 1 hour, FIG. 18
[8] = GFP-NLS 5 μM, shuttle 0.5 μM, 1 hour
[9] = GFP-NLS 5 μM, shuttle 1 μM, 1 hour
[10] = GFP-NLS 5 μM, shuttle 3 μM, 1 hour
[11] = GFP-NLS 5 μM, shuttle 5 μM, 1 hour

Sequence: KWKLFKKIGAVLKVLTTGYGRKKRRQRRRC [CM18-TAT-Cys]
- Mean (%) (n = 3), FIG. 17A [1]: 38.1%
- nuclear fluorescence of delivered GFP-NLS (microscopy, data not shown) ([2]; 1 hour): Nuclear fluorescence of intracellularly delivered GFP-NLS was confirmed
- GFP-NLS nuclear delivery (microscopy) ([2]; after 5 minutes, FIG. 12): efficiently delivered to the nucleus
- Mean Factor ([3]; Table 2.8, peptide 0.5 μM): 1.2
- Mean counts (n = 2) ([3]; Table 2.8, peptide 0.5 μM): 196 182
- Mean Factor ([3]; Table 2.8, peptide 5 μM): 3.8
- Mean counts (n = 2) ([3]; Table 2.8, peptide 5 μM): 629 783
- mean cellular calcein fluorescence intensity v. untreated control cells ([3]; Table 2.8 and FIG. 1B): increased mean cellular calcein fluorescence intensity
- TAT-GFP subcellular delivery (microscopy) [4]: delivered to the cytoplasm and to the nucleus; also recorded: nuclear delivery
- GFP-NLS transduction efficiency, dose dependence ([5]; GFP-NLS 5 μM with 0.5-5 μM shuttle, 1 hour, Table 5.1): increase GFP-NLS transduction efficiency in HeLa cells in a dose-dependent manner
- GFP-NLS transduction efficiency / intracellular delivery (in words) ([5]; GFP-NLS 5 μM, 1 hour, Tables 5.2, 5.3, FIGS. 14, 15): increased
- Mean (%) (n = 3), FIG. 13A [5, 8]: 9.81%
- Mean (%) (n = 3), FIG. 14 [5, 8]: 7.64%
- Mean (%) (n = 3), FIG. 13A [5, 9]: 18.42%
- Mean (%) (n = 3), FIG. 15 [5, 9]: 15.56%
- Mean (%) cell with GFP signal (n = 3), FIG. 21A [5, 9]: 8.64%
- Mean (%) (n = 3), FIG. 13A [5, 10]: 28.09%
- Mean (%) cell with GFP signal (n = 3), FIG. 21A [5, 10]: 15.66%
- Mean (%) (n = 3), FIG. 16 ([5]; GFP-NLS 5 μM, DMEM, 5 min): 20.45%
- Mean (%) (n = 3), FIG. 16 ([5]; GFP-NLS 5 μM, DMEM, 1 h): 20.69%
- Mean (%) (n = 3), FIG. 16 ([5]; GFP-NLS 5 μM, FBS (DMEM with 10% FBS), 5 min): 10.83%
- Mean (%) (n = 3), FIG. 16 ([5]; GFP-NLS 5 μM, FBS (DMEM with 10% FBS), 1 h): 13.20%
- Mean (%) (n = 3), FIG. 13A [5, 11]: 32.26%
- Mean (%) cell with GFP signal (n = 3), FIG. 21A [5, 11]: 20.54%
- Mean (%) (n = 3), FIG. 11A ([6]; shuttle 0.5 μM): 10.19%
- Mean (%) (n = 3), FIG. 11A ([6]; shuttle 1 μM): 14.46%
- Mean (%) (n = 3), FIG. 11A ([6]; shuttle 3 μM): 28.12%
- Mean (%) (n = 3), FIG. 11A ([6]; shuttle 5 μM): 35.5^2%
- functional antibody delivery (microscopy) [7]: fluorescent tubulin fibers in the cytoplasm were visualized
